# Assay results: PubChem BioAssay AID1508623 (National Center for Advancing Translational Sciences (NCATS), 2021)
# Hit rate of the full screen: of about 48,000 compounds, about 450 (0.94%) were called active. Inconclusive means that the source gave no clear call. Such entries were picked first, then a sample of the others. Calls follow the shape of the dose curve; as a rule, active = well fitted inhibition curve with a large enough effect; inconclusive = small, poorly fitted or top-dose-only effect; inactive = no such curve, though single readings can be large or run the other way. Potencies of inconclusive entries are doubtful fits and often do not repeat.
# Assay: Primary qHTS for Identification of Small Molecule Inhibitors of Huntingtin Promoter Activity; also: nearly all actives have a fitted effect of over 50% in size
# Settings: HEK293 HTT promoter firefly luciferase reporter (activity 0% = vehicle and -100% = no light), 24 h; activity change, negative = inhibition: at 57.5 µM (top of the series)
# Excerpt: Assay Provider: Russell L. Margolis M.D.
# Department Neurology, Johns Hopkins University School of Medicine, Baltimore, MD
# Huntington's Disease (HD) is a neurodegenerative disorder caused by a CAG repeat expansion in exon 1 of huntingtin (HTT). While there are currently no disease-modifying treatments for HD, recent efforts have focused on development of nucleotide-based therapeutics to lower HTT expression. As an alternative to siRNA or oligonucleotide methods, we hypothesized that suppression of HTT expression might be accomplished by small molecules that either (1) directly decrease HTT expression by suppressing HTT promoter activity or (2) indirectly decrease HTT expression by increasing the promoter activity of HTT-AS, the gene antisense to HTT that appears to inhibit expression of HTT.
# We developed and employed a high throughput screen for modifiers of HTT and HTT-AS promoter activity using luminescent reporter HEK293 cells; of the 52,041 compounds tested, we identified 898 replicable hits. We used a rigorous stepwise approach to assess compound toxicity and the capacity of the compounds to specifically lower huntingtin protein in 5 different cell lines, including HEK293 cells, HD lymphoblastoid cells, mouse primary neurons, HD iPSCs differentiated into cortical-like neurons, and HD hESCs. We found no compounds which were able to lower huntingtin without lowering cell viability in all assays, though the potential efficacy of a few compounds at non-toxic doses could not be excluded.
# SEQUENCE No. (1, 2, 3, etc.); […] (e.g., Cells, Incubation, Reagent, etc.); VALUE and DESCRIPTION.
# 1; Reagent; 4 uL; 2,500 Hek293 luciferase reporter cells per wells
# 3; Compound; 23 nL; Control inhibitor / compound library
# 5; Reagent; 2.5 uL; Firefly Luc reagent; Dual-Glo Luciferase Reporter Assay System (Promega)
# 6; Time; 10 min; room temperature incubation
# 7; Detection; Luminescence; FLuc
# NOTES (numbers refer to sequence above)
# 1; High-throughput screening, measuring luminescence from a Hek293 luciferase reporter, was performed in 1,536 well white-walled tissue-culture treated plates. 2,500 cells were plated in 4 µL of Opti-MEM per well using a Multidrop Combi Reagent Dispenser (ThermoFisher).
# 2; Assay plates were cultured for 24 hours.
# 3; Control inhibitor (PTC124; final concentration of 50 uM) and compound library (at final concentrations of 460 nM - 57.5 uM) were added to the assay plate using the Kalypsis Pintool Robotic System equipped with 1536 pinheads.
# 4; Cells were then incubated for 24 hours at 37 degrees C prior to luminescence measurements.
# 5; In all cases, luminescence was measured using the Dual-Glo Luciferase Reporter Assay System (Promega) following the manufacturer's instructions.
# 6; Room temperature incubation.
# 7; Luminescence signal was obtained using the PerkinElmer ViewLux plate reader. Results were normalized to vehicle control (0% activity) and zero RLU (-100% activity).
# Potency is read from the fitted curve at half-maximal effect; tags tell the direction and shape of the fitted curve.
Compound,"activity change, negative = inhibition",Potency
O=C(O)c1ccc(S(=O)(=O)N(Cl)Cl)cc1,inactive: 6.72%,–
CCCCCN1C(C(=O)c2ccccc2)=C(NC(=O)c2ccc(OC)c(OC)c2)c2ccccc2S1(=O)=O,–,"inconclusive: 20 µM [inhibitor, partial curve, poor fit]"
O=C(C1CCCN(S(=O)(=O)c2cccc3nonc23)C1)N1CCN(c2ccccc2F)CC1 (stereo unspecified),–,"inconclusive: 31.6 µM [inhibitor, single point]"
CC(=O)c1ccc(N2C(=O)N(Cc3ccc(F)cc3)c3ccccc3S2(=O)=O)cc1,–,"inconclusive: 39.8 µM [inhibitor, single point]"
Clc1cccc(-n2ncc3c(NCCC4=CCCCC4)ncnc32)c1,inactive: -10.2%,–
CCCCN1C(=O)C(NC(=O)c2ccc(C(C)(C)C)cc2)(C(F)(F)F)C(C(=O)OC)=C1C (stereo unspecified),–,"inconclusive: 39.8 µM [inhibitor, single point]"
COc1ccc(-n2nnnc2C2CCN(S(=O)(=O)c3cc(Cl)ccc3OC)CC2)cc1,–,"inconclusive: 39.8 µM [inhibitor, single point]"
COc1cc(NC(=O)c2c(C)nn(-c3ccc(F)cc3)c2-n2cccc2)cc(OC)c1,inactive: -20.2%,–
COc1ccc(CC(=O)Nc2c(C(=O)N3CCN(c4ccccc4F)CC3)oc3ccccc23)cc1OC,–,"inconclusive: 25.1 µM [inhibitor, single point]"
CCOc1ccc(OCC)c(Nc2nc3ccccc3n3nnnc23)c1,inactive: -15.9%,–
O=C1C2=C(Nc3ccccc3SC2c2ccc(C(F)(F)F)cc2)c2ccccc21 (stereo unspecified),–,"inconclusive: 35.5 µM [inhibitor, single point]"
COc1cccc(CNC(=O)c2ccc3oc(=O)n(Cc4ccccc4)c3c2)c1,–,"inconclusive: 39.8 µM [inhibitor, single point]"
COc1ccccc1Nc1ncc2c(n1)CCN(CC(C)C)C2,inactive: 28.6%,–
CCN1C(=O)c2ccccc2S(=O)c2ccc(C(=O)N3CCN(c4ccc(F)cc4)CC3)cc21 (stereo unspecified),inactive: -18.9%,–
Cc1ccc(S(=O)(=O)N2CCC(C(=O)Nc3cc(C)ccc3C)CC2)cc1,–,"inconclusive: 14.1 µM [inhibitor, partial curve, poor fit]"
O=C(CSc1c2c(nc3ccccc13)CCC2)Nc1ccc(F)cc1F,–,"inconclusive: 39.8 µM [inhibitor, single point]"

Compound,"activity change, negative = inhibition",Potency
Cc1ccnc(NS(=O)(=O)c2ccc(NC(=O)Nc3ccc(S(=O)(=O)Nc4nccc(C)n4)cc3)cc2)n1,inactive: 2.33%,–
CC(CNC(=O)c1sc2ncccc2c1-n1cccc1)c1ccccc1 (stereo unspecified),–,"inconclusive: 39.8 µM [inhibitor, single point]"
Cc1ccc(NC(=O)C2=CC(c3cccs3)=NS(=O)(=O)N2C)cc1,–,"inconclusive: 28.2 µM [inhibitor, single point]"
Cc1ccc(-c2nn(CCC(=O)Nc3ccc(Cl)c(Cl)c3)c(=O)c3ccccc23)cc1,inactive: -9.37%,–
Cc1ccc(C(=O)NCCSc2c(C)[nH]c3ccccc23)cc1C,–,"inconclusive: 22.4 µM [inhibitor, partial curve, poor fit]"
CCCN(CCC)CCNC(=O)c1cc(-c2ccc(Br)s2)nc2ccccc12,inactive: -26.8%,–
COc1ccccc1-c1nnc(SCC(=O)c2ccc(F)cc2)n1-c1ccccc1,–,"inconclusive: 39.8 µM [inhibitor, single point]"
CCc1ccc(C2=C(C)C(N3CCC(C(=O)NCCc4ccco4)CC3)=NS2(=O)=O)cc1,–,"inconclusive: 31.6 µM [inhibitor, partial curve, poor fit]"
C=Cc1ccc(Cn2c(=O)cc(C)c3c(C)nn(C)c32)cc1,–,"inconclusive: 15.8 µM [inhibitor, partial curve]"
COc1ccc(S(=O)(=O)c2cn(Cc3ccccc3)c3ccc(OC)cc3c2=O)cc1,–,"inconclusive: 20 µM [inhibitor, single point]"
COc1ccccc1NC(=O)c1cc(C2CC2)nc2c1c(C)nn2-c1ccc(C)cc1,inactive: -10.5%,–
COc1ccccc1Cc1nc2ccccc2nc1SCC(=O)N1CCC(C)CC1,–,"inconclusive: 35.5 µM [inhibitor, single point]"
CCOC(=O)c1cc(-c2ccccc2)n(CCCC(=O)Nc2cc(C)ccc2OC)c1C,–,"inconclusive: 28.2 µM [inhibitor, partial curve, poor fit]"
CCOc1ccc(C(=O)NCc2ccc3c(c2)CCN3C(=O)c2ccc(C)cc2)cc1OCC,–,"inconclusive: 39.8 µM [inhibitor, partial curve, poor fit]"
Fc1ccc(Nc2nc(Nc3ccc(F)cc3)nc(N3CCOCC3)n2)cc1,–,"inconclusive: 22.4 µM [inhibitor, single point]"
